Some of the results follow. Values were computed here from the reads of four pooled replicates and scatter widely.
These sequences were tested against T1, Pho4 (S. cerevisiae) (UniProt P07270) (assay: relative binding free energy (BET-seq); higher = weaker binding). Conditions: reference: library average.
T1 sequence: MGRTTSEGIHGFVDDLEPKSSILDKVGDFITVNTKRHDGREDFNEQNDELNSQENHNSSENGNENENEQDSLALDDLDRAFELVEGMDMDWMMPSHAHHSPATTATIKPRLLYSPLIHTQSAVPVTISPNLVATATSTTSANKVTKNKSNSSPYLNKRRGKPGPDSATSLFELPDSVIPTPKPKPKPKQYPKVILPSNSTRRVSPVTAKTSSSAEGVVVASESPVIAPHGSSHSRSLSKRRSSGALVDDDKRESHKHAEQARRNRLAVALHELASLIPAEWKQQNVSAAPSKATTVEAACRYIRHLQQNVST

| Sequence | relative binding free energy [kcal/mol] |
| --- | --- |
| AGTGTCACGTGGATCA | 0.01 |
| ATCGTCACGTGAGATT | 0.28 |
| GGGCACACGTGTTAGG | 0.15 |
| CATAACACGTGATGGT | 0.33 |
| TGGTACACGTGCGGTT | 0.08 |
| TAGGACACGTGATCTT | 0.16 |
| GTTAGCACGTGGCGGT | -0.05 |
| GTTGGCACGTGGTCCG | -0.23 |
| TGGTCCACGTGATATT | 0.2 |
| GCGGGCACGTGACGTG | 0.01 |
| GTTACCACGTGTGAGT | 0.15 |
| TTGGCCACGTGAGGGA | 0.05 |
| GTCGTCACGTGGGACT | 0.06 |
| TTCTCCACGTGTGGTG | -0.03 |
| AGTGTCACGTGGCTGC | -0.09 |
| GGTTTCACGTGCGGTG | 0.19 |
| TGTAGCACGTGTAGCG | -0.01 |
| GAGAGCACGTGTAAGG | 0.12 |
| TAGTTCACGTGAGAAT | 0.46 |
| ATAGACACGTGTATGA | 0.08 |
| AGGAACACGTGCTTTT | 0.08 |
| TATCTCACGTGTTTTA | 0.12 |
| CAATGCACGTGGGGTA | -0.18 |

| Sequence | relative binding free energy [kcal/mol] |
| --- | --- |
| GGATACACGTGGTTTG | 0.1 |
| CTATTCACGTGTTTGT | 0.13 |
| TTCATCACGTGTAGTG | 0.09 |
| TTTGCCACGTGTAGGC | 0.16 |
| GTTCACACGTGTGGGT | 0.21 |
| GGGCACACGTGGAGGG | 0.02 |
| TGCTGCACGTGGCGTT | -0.07 |
| GGGAACACGTGGTGTT | -0.02 |
| TAGTGCACGTGCGTGA | -0.06 |
| TCGTGCACGTGGGAAT | -0.06 |
| CGGGTCACGTGATGTA | 0.3 |
| TATGTCACGTGTGGAC | 0.07 |
| GTAAACACGTGGGGCT | -0.12 |
| AGGGTCACGTGGGGAG | 0.08 |
| GAGGGCACGTGGTGGG | -0.01 |
| TCGTTCACGTGACGTT | 0.31 |
| GAGTCCACGTGGGAGT | -0.02 |
| TCATTCACGTGTTGTG | 0.2 |
| GGTTTCACGTGGTAAT | 0.33 |
| ATTTTCACGTGGGATT | 0.37 |
| GGATTCACGTGTGTCG | 0.12 |
| TGGGACACGTGAGTGG | 0.21 |
| ACGTTCACGTGTGGTG | 0.19 |

| Sequence | relative binding free energy [kcal/mol] |
| --- | --- |
| AGTTTCACGTGAGATT | 0.37 |
| ACGGGCACGTGACGTG | 0.04 |
| ATGTGCACGTGTGGTT | 0 |
| TATCACACGTGGGCGG | -0.03 |
| AGTGACACGTGGCAGT | -0.05 |
| CAAATCACGTGTGTGG | 0.31 |
| GCTGTCACGTGTTTTG | 0.11 |
| ATCGACACGTGTAGTT | 0.1 |
| GTGACCACGTGGTTTG | -0.1 |
| GAATTCACGTGTTAAG | 0.45 |
| CTGCGCACGTGTTGAT | -0.05 |
| AGGACCACGTGCGGGT | -0.1 |
| GTCTGCACGTGGGAGC | 0.07 |
| GGCGACACGTGTGTAT | 0.15 |
| GTCTACACGTGGAGTT | 0.13 |
| TATTGCACGTGCGGTA | -0.16 |
| TGTGTCACGTGCATAG | 0.08 |
| AATAGCACGTGAAGTG | 0.07 |
| AGCGACACGTGTGGTT | 0.09 |
| ACTGTCACGTGGGGGA | -0.11 |
| TGCTGCACGTGGGTTT | -0.09 |
| ATACTCACGTGTTAGT | 0.14 |
| GGTGCCACGTGAAAGT | 0.27 |

| Sequence | relative binding free energy [kcal/mol] |
| --- | --- |
| GGTACCACGTGGATGG | 0.08 |
| TGAGTCACGTGGATGG | 0.03 |
| TTTTACACGTGAGTGC | 0.24 |
| TGTCACACGTGTGGAT | -0.03 |
| GATTGCACGTGTTTAT | 0.06 |
| GGTGTCACGTGACGCG | 0.24 |
| GTTTTCACGTGTGCTA | 0.33 |
| AATTTCACGTGGAGCT | 0.37 |
| GTATACACGTGTATTA | 0.04 |
| ATTGTCACGTGGGCTG | -0.1 |
| CATTGCACGTGGTGGC | -0.07 |
| TGGTCCACGTGTTTCG | 0.12 |
| TGAGGCACGTGACGTG | -0.02 |
| TCGGCCACGTGGGAGT | -0.02 |
| GTGTACACGTGAAGTA | 0.37 |
| TATAACACGTGGAATA | 0.14 |
| AGGGGCACGTGGCTCG | -0.24 |
| AAAGGCACGTGAGGAT | 0.18 |
| GCATGCACGTGAGGGT | 0.04 |
| ATGGTCACGTGTCGGT | 0.29 |
| AGGTGCACGTGCGTAA | -0.12 |
| GTATGCACGTGTATGA | 0.08 |
| TTGAACACGTGGGTTC | -0.18 |

| Sequence | relative binding free energy [kcal/mol] |
| --- | --- |
| GGATGCACGTGCAAGG | 0.01 |
| GGTTTCACGTGGGGCG | 0.23 |
| CGCTACACGTGGGTGG | -0.12 |
| GGCTGCACGTGTGCGA | 0.09 |
| ACTTGCACGTGTTTAT | -0.01 |
| TCGTTCACGTGTTTTA | 0.16 |
| ATTAGCACGTGTTGAG | -0.07 |
| TAGATCACGTGTAAGT | 0.19 |
| AGGGGCACGTGGACTT | -0.16 |
| TGTGGCACGTGCCTAG | -0.13 |
| GAGCACACGTGATGGG | 0.29 |
| GTCTTCACGTGTCTTG | 0.23 |
| TTAGTCACGTGGGCTT | 0.01 |
| GACTTCACGTGTGGTT | 0.29 |
| AGAGTCACGTGTTAGG | 0.15 |
| TGATACACGTGGGTCG | -0.1 |
| TGTACCACGTGGAAGG | 0.14 |
| CAGTGCACGTGGGAGA | -0.15 |
| GATATCACGTGCTGTT | 0.21 |
| ATATTCACGTGTTATT | 0.03 |
| ATGTTCACGTGTAGAT | 0.37 |
| TTTGACACGTGACATG | 0.1 |
| GGTGGCACGTGTACGG | 0.09 |

— the BET-seq Pho4 binding data (Le et al. 2018)
